Experimental findings from publication PMC5700166 are described below.

Only a part is listed here, and it is no random draw. The list includes weakly bound sequences.

Common to all, as to assay: protein-binding microarray (PBM)
What all share (conditions): PBM: ~300 nM protein, 6 mM HEPES pH 7.8, 80 mM KCl, 0.5 mM EDTA, 0.5 mM EGTA, 6% glycerol, 35 ng/ul poly-dIdC, 1% milk, 1 h, room temperature; Ap Aiptasia and Nv Nematostella (sea anemones) / Co Capsaspora / Aq Amphimedon (sponge) / Dm Drosophila / Hu human; RHD is the Rel homology domain; high values mean tight binding; most listed sequences are background and not binding sites; double strand, one strand shown

One test concerns the target T1, GST-Ap-NF-kB RHD (UniProt A0A913YAJ5).
T1 sequence: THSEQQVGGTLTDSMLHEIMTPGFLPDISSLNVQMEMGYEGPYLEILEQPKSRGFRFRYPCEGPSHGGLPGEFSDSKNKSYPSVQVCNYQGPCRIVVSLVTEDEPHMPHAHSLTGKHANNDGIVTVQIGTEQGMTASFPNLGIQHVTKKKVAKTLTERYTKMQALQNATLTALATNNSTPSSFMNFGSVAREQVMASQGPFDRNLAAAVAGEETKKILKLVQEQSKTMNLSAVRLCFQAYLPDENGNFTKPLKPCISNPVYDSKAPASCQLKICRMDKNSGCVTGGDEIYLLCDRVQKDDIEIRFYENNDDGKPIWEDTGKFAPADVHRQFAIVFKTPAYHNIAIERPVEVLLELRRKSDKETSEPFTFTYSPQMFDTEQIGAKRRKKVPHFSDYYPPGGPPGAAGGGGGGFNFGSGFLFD

Test [1] concerns the target T2, GST-Nv-NF-kB (Cys allele) (UniProt E5G601).
T2 sequence: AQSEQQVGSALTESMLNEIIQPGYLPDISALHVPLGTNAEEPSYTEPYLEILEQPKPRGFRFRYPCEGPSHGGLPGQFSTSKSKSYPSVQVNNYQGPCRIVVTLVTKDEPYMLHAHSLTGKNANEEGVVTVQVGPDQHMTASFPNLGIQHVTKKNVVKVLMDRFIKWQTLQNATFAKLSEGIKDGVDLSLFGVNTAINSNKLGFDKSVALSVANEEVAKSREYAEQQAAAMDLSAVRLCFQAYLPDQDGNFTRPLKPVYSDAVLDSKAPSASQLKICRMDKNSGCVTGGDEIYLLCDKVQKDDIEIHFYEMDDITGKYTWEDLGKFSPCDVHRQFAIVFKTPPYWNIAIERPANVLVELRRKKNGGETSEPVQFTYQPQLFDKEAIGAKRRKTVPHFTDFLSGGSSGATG

Another test has as its target T3, GST-Co-NF-kB (UniProt F1ARL5).
T3 sequence: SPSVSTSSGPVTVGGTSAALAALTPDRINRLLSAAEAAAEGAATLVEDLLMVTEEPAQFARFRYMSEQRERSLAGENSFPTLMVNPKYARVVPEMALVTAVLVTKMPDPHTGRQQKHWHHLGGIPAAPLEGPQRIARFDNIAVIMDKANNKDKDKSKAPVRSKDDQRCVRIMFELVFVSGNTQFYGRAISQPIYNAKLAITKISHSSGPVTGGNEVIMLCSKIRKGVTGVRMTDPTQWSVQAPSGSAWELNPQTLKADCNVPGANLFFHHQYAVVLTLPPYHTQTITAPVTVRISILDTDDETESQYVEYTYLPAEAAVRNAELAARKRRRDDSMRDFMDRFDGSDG

The target of a further test is T4, GST-Dm-Relish (UniProt Q94527).
T4 sequence: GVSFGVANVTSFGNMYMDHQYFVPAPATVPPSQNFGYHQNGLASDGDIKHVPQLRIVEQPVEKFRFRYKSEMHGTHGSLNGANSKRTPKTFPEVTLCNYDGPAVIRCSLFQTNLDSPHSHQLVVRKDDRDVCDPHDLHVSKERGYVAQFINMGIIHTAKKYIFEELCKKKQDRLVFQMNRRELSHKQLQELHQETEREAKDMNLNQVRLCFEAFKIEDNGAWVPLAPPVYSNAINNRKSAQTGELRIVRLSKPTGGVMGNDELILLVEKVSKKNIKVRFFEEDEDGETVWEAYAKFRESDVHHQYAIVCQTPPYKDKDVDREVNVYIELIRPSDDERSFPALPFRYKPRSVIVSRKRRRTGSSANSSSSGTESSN

Regarding “CCGATTAACATCAAAATTTCCAGTGATGTTAATCGGGTCTTGATTCGCTTGACGCTGCTG”, the binding signal with GST-Ap-NF-kB RHD is -0.498 z-score; in test [1] it was 0.454 z-score; with GST-Co-NF-kB, 0.466 z-score; in the test with GST-Dm-Relish, 0.998 z-score.
On the same counts, the results for “CCGATTAACATCACGGAAAAGCCTGATGTTAATCGGGTCTTGATTCGCTTGACGCTGCTG” are 0.138 z-score, -0.109 z-score, -0.0482 z-score and 0.243 z-score.
As to “CCGATTAACATCACGGGGAAAACTGATGTTAATCGGGTCTTGATTCGCTTGACGCTGCTG”, the binding signal with GST-Ap-NF-kB RHD was 7.27 z-score; in test [1], 7.6 z-score; in the test with GST-Co-NF-kB it was 10.2 z-score; in the test with GST-Dm-Relish, 5.68 z-score.
Consider “CCGATTAACATCAGGGGTTCACCTGATGTTAATCGGGTCTTGATTCGCTTGACGCTGCTG”, for which the binding signal with GST-Ap-NF-kB RHD is 3.84 z-score; in test [1] it was 2.71 z-score; with GST-Co-NF-kB it was 1.45 z-score; in the test with GST-Dm-Relish it was 8.89 z-score.
The like results for “CCGATTAACATCAAGGCATTTCCTGATGTTAATCGGGTCTTGATTCGCTTGACGCTGCTG” were, in that order, -0.435 z-score, -0.79 z-score, -0.19 z-score and -0.672 z-score.
Consider “CCGATTAACATCAGGAAAGCCCATGATGTTAATCGGGTCTTGATTCGCTTGACGCTGCTG”, for which the binding signal with GST-Ap-NF-kB RHD stood at 1.24 z-score; in test [1], 0.737 z-score; with GST-Co-NF-kB it was 0.477 z-score; in the test with GST-Dm-Relish, 4.29 z-score.
On the same counts, the results for “CCGATTAACATCAAGGATTGCCCTGATGTTAATCGGGTCTTGATTCGCTTGACGCTGCTG” are 0.6 z-score, 0.299 z-score, 0.277 z-score and 0.595 z-score.
The like results for “CCGATTAACATCAGGAGATTCCATGATGTTAATCGGGTCTTGATTCGCTTGACGCTGCTG” were, in that order, -0.0423 z-score, -0.202 z-score, -0.4 z-score and 0.459 z-score.
On to “CCGATTAACATCAGGAAATTTCATGATGTTAATCGGGTCTTGATTCGCTTGACGCTGCTG”, for which the binding signal with GST-Ap-NF-kB RHD was 0.00928 z-score; in test [1], 0.038 z-score; with GST-Co-NF-kB, -0.437 z-score; in the test with GST-Dm-Relish it was 0.374 z-score.
On the same counts, the results for “CCGATTAACATCAGGTGATCACCTGATGTTAATCGGGTCTTGATTCGCTTGACGCTGCTG” are 0.239 z-score, 0.241 z-score, -0.551 z-score and 2.86 z-score.
Consider “CCGATTAACATCAGGTTTTTCCATGATGTTAATCGGGTCTTGATTCGCTTGACGCTGCTG”, for which the binding signal is 0.25 z-score with GST-Ap-NF-kB RHD, -0.0888 z-score in test [1], 0.345 z-score with GST-Co-NF-kB and 2.68 z-score in the test with GST-Dm-Relish.
As to “CCGATTAACATCAGGACATCCCATGATGTTAATCGGGTCTTGATTCGCTTGACGCTGCTG”, the binding signal in the test with GST-Ap-NF-kB RHD was 0.495 z-score; in test [1], -0.402 z-score; in the test with GST-Co-NF-kB, -0.275 z-score; with GST-Dm-Relish, 3.93 z-score.
For the sequence “CCGATTAACATCAAGGAAGTTCCTGATGTTAATCGGGTCTTGATTCGCTTGACGCTGCTG”, the binding signal with GST-Ap-NF-kB RHD was -0.154 z-score; in test [1] it was 0.0517 z-score; with GST-Co-NF-kB it was -0.686 z-score; with GST-Dm-Relish, -0.00166 z-score.
On the same counts, the results for “CCGATTAACATCACGAAATTTCCTGATGTTAATCGGGTCTTGATTCGCTTGACGCTGCTG” are 0.236 z-score, 0.541 z-score, 0.479 z-score and 0.545 z-score.
On the same counts, the results for “CCGATTAACATCAGGGGGTTTTATGATGTTAATCGGGTCTTGATTCGCTTGACGCTGCTG” are 9.65 z-score, 9.57 z-score, 3.52 z-score and 10 z-score.
